The record followed here is publication PMC4336329 (PLoS ONE, 2015).

Hit rate of the full screen: of about 310,000 compounds, about 14,000 (4.5%) showed an effect of 50% or more. Effects have a minus sign here. The list shows a part of the results.
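Note: peak tail current of the secondary pulse compared with the same well before compound.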

For the assay, the target named is human ether-à-go-go-related gene (hERG) potassium channel (human, UniProt Q12809). The experiment in a line: primary screen, population patch clamp on CHO cells stably expressing hERG.
Chain of human ether-à-go-go-related gene (hERG) potassium channel (Q12809 whole entry, looked up): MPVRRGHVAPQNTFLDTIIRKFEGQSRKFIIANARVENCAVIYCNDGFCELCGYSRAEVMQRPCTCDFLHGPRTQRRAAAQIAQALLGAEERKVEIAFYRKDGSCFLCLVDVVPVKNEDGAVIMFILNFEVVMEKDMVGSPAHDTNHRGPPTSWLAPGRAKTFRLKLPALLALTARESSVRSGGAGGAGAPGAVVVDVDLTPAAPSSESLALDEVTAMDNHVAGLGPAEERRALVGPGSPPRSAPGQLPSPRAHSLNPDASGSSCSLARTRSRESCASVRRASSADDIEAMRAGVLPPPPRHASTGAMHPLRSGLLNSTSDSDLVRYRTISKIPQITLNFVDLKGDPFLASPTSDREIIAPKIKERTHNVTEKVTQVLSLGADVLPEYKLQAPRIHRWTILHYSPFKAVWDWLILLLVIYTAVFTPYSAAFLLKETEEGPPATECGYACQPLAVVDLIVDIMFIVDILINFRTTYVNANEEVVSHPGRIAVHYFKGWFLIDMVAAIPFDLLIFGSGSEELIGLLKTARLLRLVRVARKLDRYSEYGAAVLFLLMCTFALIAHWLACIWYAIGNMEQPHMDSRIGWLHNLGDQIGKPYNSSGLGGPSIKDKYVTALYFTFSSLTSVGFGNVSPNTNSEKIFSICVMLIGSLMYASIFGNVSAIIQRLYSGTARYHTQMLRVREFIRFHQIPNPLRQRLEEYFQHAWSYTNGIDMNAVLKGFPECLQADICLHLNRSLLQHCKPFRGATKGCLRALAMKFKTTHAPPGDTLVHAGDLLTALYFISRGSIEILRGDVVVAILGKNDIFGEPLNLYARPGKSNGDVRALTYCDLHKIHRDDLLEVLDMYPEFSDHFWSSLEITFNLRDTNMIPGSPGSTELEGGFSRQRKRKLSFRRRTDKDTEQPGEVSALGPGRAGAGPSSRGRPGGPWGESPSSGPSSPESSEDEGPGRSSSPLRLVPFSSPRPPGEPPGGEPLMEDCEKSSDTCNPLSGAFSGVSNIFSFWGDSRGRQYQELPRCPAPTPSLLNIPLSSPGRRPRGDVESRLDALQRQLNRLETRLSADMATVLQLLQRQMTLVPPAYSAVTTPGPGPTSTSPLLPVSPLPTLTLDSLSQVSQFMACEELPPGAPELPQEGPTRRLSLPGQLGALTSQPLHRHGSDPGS
For `O=C(CNC(=O)c1ccccc1F)OCC(=O)N1CCCc2ccccc21`, the “hERG current change (%, negative = inhibition) at 10uM” value was -7.61%.
In the case of `COc1ccc(S(=O)(=O)NC(CC(=O)N2CCC3(CC2)OCCO3)c2ccco2)cc1` (stereo not drawn), the “hERG current change (%, negative = inhibition) at 10uM” value came to 3.91%.
Take `COC[C@]12CN(C)C3C4[C@H](OC)[C@H]1C3([C@@H](OC)C[C@H]2O)[C@@H]1C[C@@]2(O)[C@H](OC(=O)c3ccccc3)[C@@H]1[C@]4(OC(C)=O)[C@@H](O)[C@@H]2OC`: the “hERG current change (%, negative = inhibition) at 10uM” value amounted to 8.52%.
Turning to `CC(=O)Nc1ccc(NC(=O)CCNC(=O)c2ccccc2Cl)cc1`, the “hERG current change (%, negative = inhibition) at 10uM” value is given as 20.9%.
Take `CCS(=O)(=O)N1CCC(C(=O)NCCCN2CCCCCC2)CC1`: the “hERG current change (%, negative = inhibition) at 10uM” value was -5.17%.
Turning to `Cc1cc(C)c(OCCCON2C(=O)CCC2=O)c(Br)c1`, the “hERG current change (%, negative = inhibition) at 10uM” value is -2.89%.
In the case of `c1ccc(CNn2nnnc2-c2ccccc2)cc1` it was -0.0934%; in that of `COc1cc(C(=O)Nc2ccc(Br)cc2C(=O)c2ccccc2Cl)cc(OC)c1OC`, 12.2%; in that of `CCN(CC)C(=O)Cn1cc(S(=O)(=O)CC(=O)Nc2cc(OC)ccc2OC)c2ccccc21`, -8.35%.
In the case of `CCOc1ccc2nc(NCCNC(=O)C(C)C)c(C)cc2c1`, the “hERG current change (%, negative = inhibition) at 10uM” value was -61%.
`COc1ccc(N2CCN(c3ncnc4c3nnn4Cc3ccccc3Cl)CC2)cc1`: the “hERG current change (%, negative = inhibition) at 10uM” value amounted to 9.59%.
As for `C=CCN1C(=O)/C(=C\c2ccc(OC(=O)c3ccco3)c(OC)c2)SC1=S`, the “hERG current change (%, negative = inhibition) at 10uM” value is 14.9%.
As to `Cc1[nH]n(-c2ccccc2)c(=S)c1C=Nc1ccc([N+](=O)[O-])cc1`, the “hERG current change (%, negative = inhibition) at 10uM” value was determined as 16.8%.
Consider `O=C(/C=C/c1ccco1)N1CCN(S(=O)(=O)c2ccc(F)c(F)c2F)CC1`, for which the “hERG current change (%, negative = inhibition) at 10uM” value is reported as -2.46%.
On to `CCOC(=O)/C(=C\c1ccc(OC(F)F)cc1)C1=Nn2c(nnc2-c2ccc(Cl)cc2)SC1`, for which the “hERG current change (%, negative = inhibition) at 10uM” value is listed as -0.631%.
In the case of `Cc1cc(OCC(=O)OCC(=O)NCCN2C(=O)CSC2=O)ccc1Cl` it was -2.65%; in that of `O=C(O)C(Cc1ccccc1)N1C(=O)CCC1=O` (stereo not drawn), 14.4%; in that of `COCCCN(C(=S)Nc1cc(C)cc(C)c1)C(C)c1ccncc1` (stereo not drawn), -41%.
Consider `COc1ccc2c(c1OC)C(=O)N(c1cccc(C)c1)C2`, for which the “hERG current change (%, negative = inhibition) at 10uM” value was 4.15%.
With `Cc1ccc(S(=O)(=O)NCc2cccnc2)cc1`, the “hERG current change (%, negative = inhibition) at 10uM” value is given as 5.22%.
As to `O=C(O)C(=O)O.c1ccc(-c2ccccc2OCCOCCN2CCNCC2)cc1`, the “hERG current change (%, negative = inhibition) at 10uM” value is 2.27%.
In the case of `COCCNC(=O)CCCn1c(=O)c2cc(OC)c(OC)cc2n(CC(=O)Nc2ccccc2OC)c1=O` it was 5.35%; in that of `O=C(Cn1nnc2ccccc21)OCC(=O)c1ccccc1`, 18.2%; in that of `CCCCCCC(=O)N1C/C=C\C(c2ccc(OC)cc2)N(Cc2ccc(F)cc2)C(=O)[C@H]1Cc1ccccc1` (stereo partly drawn), -0.246%.
In the case of `COc1cnc(-c2ccccn2)nc1Oc1ccccc1Cl`, the “hERG current change (%, negative = inhibition) at 10uM” value is recorded as 18.3%.
For the molecule `Cc1cc(C)cc(OCC(=O)NCCN2CCOCC2)c1`, the “hERG current change (%, negative = inhibition) at 10uM” value is given as -0.76%.
As to `CC(C)(C)c1ccc(C2=NC(=O)C(CC(=O)O)S2)cc1` (stereo not drawn), the “hERG current change (%, negative = inhibition) at 10uM” value stood at 21.6%.
Turning to `CC1=C(C(=O)Nc2cc(C)ccc2C)C(c2cccs2)NC(=S)N1` (stereo not drawn), the “hERG current change (%, negative = inhibition) at 10uM” value was found to be 14%.
With `CN(CCOc1ccc(Cl)cc1)C(=O)c1ccccc1SCC(=O)N1CCCC1`, the “hERG current change (%, negative = inhibition) at 10uM” value is listed as -37.6%.
For `Cc1noc(C)c1CSc1ccccc1C(=O)O`, the “hERG current change (%, negative = inhibition) at 10uM” value is 23.8%.
In the case of `COc1ccc(CCNC(=S)N2CCN(S(=O)(=O)c3ccccc3)CC2)cc1` it was 5.01%; in that of `CC1CN(C(=O)C2CC(=O)N(c3ccc(Cl)cc3)C2)CC(C)O1` (stereo not drawn), -13.3%.
As for `CNc1nc(OC)nc(N2CCOCC2)n1`, the “hERG current change (%, negative = inhibition) at 10uM” value was 21.8%.
The same measure for `CCSc1nc2c(cnn2-c2ccc(C)cc2)c(=O)[nH]1`: 17%; for `O=C(COC(=O)COc1cccc2ccccc12)NCC(F)(F)F`: 20.6%.
`COc1ccccc1NS(=O)(=O)c1cc(NC(=O)CCC2CCCC2)ccc1N1CCOCC1`: the “hERG current change (%, negative = inhibition) at 10uM” value was determined as 6.02%.
In the case of `C=CCN1N=C(c2ccc(Cl)s2)CSC1=O`, the “hERG current change (%, negative = inhibition) at 10uM” value amounted to 11%.
In the case of `Cc1ccc(COC(=O)c2ccc3c(c2)C(=O)N(CCCN2CCOCC2)C3=O)cc1` it was -11.8%; in that of `CCCCC(=O)Nc1ccc(C(=O)NCCCn2ccnc2)cc1`, -7.39%.
Regarding `O=C(COCc1cc(-c2cccs2)on1)NC1CCCCC1`, the “hERG current change (%, negative = inhibition) at 10uM” value is 7.69%.
With `Cc1ccc(Nc2nc3ccccc3n3cnnc23)c(Cl)c1`, the “hERG current change (%, negative = inhibition) at 10uM” value amounted to 13.2%.
As for `COc1ccccc1NC(=O)CN1CCN(c2ccccc2)CC1`, the “hERG current change (%, negative = inhibition) at 10uM” value is -12.7%.
On to `Cc1cc(C)c2nc(SCC(=O)Nc3ccc(S(=O)(=O)N4CCCC4)cc3)c(C)cc2c1`, for which the “hERG current change (%, negative = inhibition) at 10uM” value was found to be 0.939%.
Consider `O=C(Nc1ccc2c(c1)CCCN2C(=O)c1cccs1)c1c(F)cccc1Cl`, for which the “hERG current change (%, negative = inhibition) at 10uM” value was found to be 4.67%.
In the case of `CCCC[n+]1cc(=N)o[n-]1.Cl` it was -2.78%; in that of `COc1ccc(C(=O)N2CCC(C(=O)N3CCN(Cc4ccccc4)CC3)CC2)cc1`, -9.58%.
As for `CCOC(=O)Cn1nc(CC)c2ccccc2c1=O`, the “hERG current change (%, negative = inhibition) at 10uM” value is reported as -9.57%.
For the molecule `COc1cccc(-c2nnc(SCCC(=O)O)n2C)c1`, the “hERG current change (%, negative = inhibition) at 10uM” value is recorded as 2.27%.
For the molecule `CC(C)CC(N=Cc1c(O)c2ccccc2oc1=O)C(=O)O` (stereo not drawn), the “hERG current change (%, negative = inhibition) at 10uM” value was determined as 14%.
In the case of `C[C@H](NC(=O)c1nc[nH]c1C(=O)N[C@@H](Cc1ccccc1)C(=O)OCc1ccccc1)C(=O)OC(C)(C)C` it was -5.69%; in that of `CN(Cc1nc(-c2cnccn2)no1)CC1CCN(Cc2ccccc2)CC1`, -17.3%.
Regarding `N#CC(C#N)=CN=c1ccn(Cc2ccc(Cl)cc2Cl)cc1`, the “hERG current change (%, negative = inhibition) at 10uM” value is given as 7.39%.
Take `COc1ccc(CC(=O)Oc2ccc(C#N)cc2)cc1`: the “hERG current change (%, negative = inhibition) at 10uM” value was 21.7%.
Regarding `C[C@]1(C(=O)NCCc2c[nH]c3ccccc23)C=C[C@@H](Cc2ccccc2)N1C(=O)c1ccccc1`, the “hERG current change (%, negative = inhibition) at 10uM” value is given as -24%.
Regarding `NC(=O)c1ccc(Nc2ccc3c(c2)CCC3)c([N+](=O)[O-])c1`, the “hERG current change (%, negative = inhibition) at 10uM” value was found to be 8.96%.
For the molecule `Cc1cccc(C)c1NC(=O)C1=C(O)c2ccccc2N(C)S1(=O)=O`, the “hERG current change (%, negative = inhibition) at 10uM” value came out at 19.2%.
As for `O=C(NC(=S)NC1CCSC1=O)c1ccccc1` (stereo not drawn), the “hERG current change (%, negative = inhibition) at 10uM” value came out at 9.63%.
For `CCN(CC)C(=O)Cn1c(=O)n(-c2ccccc2)c(=O)c2c3c(sc21)CCC3`, the “hERG current change (%, negative = inhibition) at 10uM” value amounted to 13.7%.
As for `Cc1noc(NC(=O)c2ccccc2Cl)c1C#N`, the “hERG current change (%, negative = inhibition) at 10uM” value is 2.2%.
Take `Cc1cc(C)nc(N/N=C/c2ccccc2)n1`: the “hERG current change (%, negative = inhibition) at 10uM” value was 2.03%.
In the case of `CC(C)(C)NC(=O)NC(=O)CN1CCc2ccccc21` it was -2.41%; in that of `OC(CNC1Cc2ccccc2C1)c1ccccc1` (stereo not drawn), -6.88%.
In the case of `Cc1ccc(C(=O)Nc2ccccc2C(=O)NC(CC(=O)O)C(=O)O)cc1` (stereo not drawn) it was -4.79%; in that of `Cc1ccc(-c2ccc([C@H]3[C@@H]4C=CCC[C@@]4(C)C(=O)N3Cc3ccccc3)c(F)c2)cc1`, 15.1%.
Turning to `COc1cc(C(=O)N2CCCN(c3nc4cc(C)ccc4cc3C#N)CC2)cc(OC)c1OC`, the “hERG current change (%, negative = inhibition) at 10uM” value is recorded as -53.5%.
The same measure for `CN(CC(=O)Nc1cccc(S(=O)(=O)NC2=NCCC2)c1)Cc1cccc(F)c1`: -4.31%; for `CCOC(=O)N1CCN(c2ccccc2O)CC1`: -1.09%.
In the case of `O=C(COC(=O)c1ccc([N+](=O)[O-])o1)Nc1cccc2ccccc12` it was 23.8%; in that of `COc1ccc(NC(=O)COC(=O)COc2cccc(Br)c2)cc1OC`, 12.1%.
In the case of `CCCCN(CCCC)c1nc2ccccc2nc1C(C#N)C(=O)NCCCOC` (stereo not drawn), the “hERG current change (%, negative = inhibition) at 10uM” value was 4.47%.
In the case of `CCCN(CC(=O)Nc1ccccc1OC)C(=O)CSC(=S)N1CCCC1` it was -24%.
On to `O=C(CCC(=O)N(CC(=O)NC1CCCCC1)Cc1ccccc1)Nc1nccs1`, for which the “hERG current change (%, negative = inhibition) at 10uM” value turned out to be 9.38%.
On to `Cc1cc(NC(=O)c2cc3ccccc3o2)cc(C)c1OCC(=O)N1CCOCC1`, for which the “hERG current change (%, negative = inhibition) at 10uM” value is listed as -46.1%.
In the case of `NS(=O)(=O)c1cc(C(=O)NCCOc2ccccc2)c(Cl)cc1Cl` it was 11.8%; in that of `Cc1cc(C)c(NC(=O)Cn2nnc(C(=O)NCCc3ccccc3)c2N)c(C)c1`, 30.6%; in that of `CCN(CC)c1ccc(CNc2ccc3c(c2)ncn3C(C)(C)C)cc1`, 1.91%.
As for `O=C(N=Nc1c(O)[nH]c2ccccc12)c1ccccc1NS(=O)(=O)c1cccs1`, the “hERG current change (%, negative = inhibition) at 10uM” value amounted to 5.86%.
Turning to `CCOC(=O)COc1ccc(S(=O)(=O)NC2CC2)cc1`, the “hERG current change (%, negative = inhibition) at 10uM” value worked out at 14.2%.
For the molecule `O=C(COc1ccc(Cl)cc1)N1CCN(C(=O)c2cccs2)CC1`, the “hERG current change (%, negative = inhibition) at 10uM” value is listed as -74.5%.
In the case of `O=C(/C=C/c1ccccc1)C1=C(O)C(=O)N(CCO)C1c1ccccc1[N+](=O)[O-]` (stereo not drawn) it was 9.59%.
In the case of `O=C(Cn1ncc2c(=O)oc3ccccc3c21)NCCc1ccsc1` it was -54.2%.
Turning to `Cc1ccccc1C(OCCN(C(C)C)C(C)C)c1ccccc1.O=C(O)/C=C\C(=O)O` (stereo not drawn), the “hERG current change (%, negative = inhibition) at 10uM” value is given as -68.3%.
For the molecule `CCc1ccc(NC(=O)CC2C(=O)N(c3ccc(OC)cc3)C(=O)N2CCOC)cc1` (stereo not drawn), the “hERG current change (%, negative = inhibition) at 10uM” value was -5.67%.
On to `Cc1c(C)c2ccc(OCC(=O)NCCN3CCOCC3)c(C)c2oc1=O`, for which the “hERG current change (%, negative = inhibition) at 10uM” value is listed as 1.61%.
The same measure for `CCCn1c(=O)c2ccccc2n2c(SCC(=O)c3ccccc3)nnc12`: -9.27%.
Turning to `O=C1OC(Nc2ccccn2)c2ccccc21` (stereo not drawn), the “hERG current change (%, negative = inhibition) at 10uM” value was -5.61%.
The same measure for `COc1cccc(C(=O)/C(C#N)=N/Nc2cccc(-c3ccnc(C)n3)c2)c1`: -29.9%.
